# This is one part of the list. These are noisy estimates, calculated here from bound and input reads.
# Biological target: T1, Pho4 (S. cerevisiae) (UniProt P07270)
# T1 sequence: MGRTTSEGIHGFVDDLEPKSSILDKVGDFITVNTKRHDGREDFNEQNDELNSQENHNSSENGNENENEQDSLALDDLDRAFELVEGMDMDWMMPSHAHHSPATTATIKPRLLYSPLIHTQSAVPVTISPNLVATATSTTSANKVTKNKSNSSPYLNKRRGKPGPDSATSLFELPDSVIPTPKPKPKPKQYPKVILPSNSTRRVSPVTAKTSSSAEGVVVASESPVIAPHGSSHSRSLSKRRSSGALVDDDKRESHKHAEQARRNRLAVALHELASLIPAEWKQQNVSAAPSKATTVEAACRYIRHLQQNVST
# Assay: relative binding free energy (BET-seq); higher = weaker binding
# Conditions: reference: library average
row,Sequence,relative binding free energy
1,GTGGTCACGTGGGGAG,0.06 kcal/mol
2,AGTGGCACGTGAATCT,0.19 kcal/mol
3,AGGATCACGTGCTAGT,0.01 kcal/mol
4,ATGGACACGTGTGGGA,0.11 kcal/mol
5,TAGTGCACGTGTTGTC,-0.08 kcal/mol
6,GACGTCACGTGTTTAG,0.32 kcal/mol
7,GTCGGCACGTGGGTGT,-0.15 kcal/mol
8,TTAGTCACGTGATTTA,0.15 kcal/mol
9,GTAAGCACGTGTAATA,0.19 kcal/mol
10,TATGACACGTGCTGTT,0.05 kcal/mol
11,TGGGGCACGTGCTGAT,-0.09 kcal/mol
12,TGGAACACGTGTTTCG,0.21 kcal/mol
13,TAGCTCACGTGTGTAG,0.24 kcal/mol
14,AATGGCACGTGTTAAT,-0.03 kcal/mol
15,CGTGTCACGTGTTATT,0.22 kcal/mol
16,TATATCACGTGGTTTA,-0.01 kcal/mol
17,TTTGTCACGTGCTTCG,0.11 kcal/mol
18,CGTTTCACGTGGGGTC,0.2 kcal/mol
19,TTTGACACGTGTCGGT,-0.05 kcal/mol
20,TAAGCCACGTGGTTTA,-0.1 kcal/mol
21,TCGTACACGTGTGCGT,0.05 kcal/mol
22,ATGTGCACGTGATAAT,0.05 kcal/mol
23,GTGGACACGTGTTCAT,0.08 kcal/mol

row,Sequence,relative binding free energy
1,ATTGTCACGTGTATGT,0.16 kcal/mol
2,TAATACACGTGGGGGA,0.08 kcal/mol
3,AAAGGCACGTGGTACG,-0.19 kcal/mol
4,GTTATCACGTGAACGG,0.28 kcal/mol
5,GTTGGCACGTGCATGC,-0.18 kcal/mol
6,AGTAGCACGTGCTTAT,-0.03 kcal/mol
7,TAAATCACGTGTAGGG,0.06 kcal/mol
8,AGTTACACGTGAGAGA,0.34 kcal/mol
9,TTGGACACGTGATTTA,0.11 kcal/mol
10,AGTGGCACGTGGTTTA,-0.16 kcal/mol
11,AGGGGCACGTGCGAGA,-0.22 kcal/mol
12,TTTAGCACGTGGATTG,0.01 kcal/mol
13,GATTGCACGTGGATGA,0.13 kcal/mol
14,AAATGCACGTGCGGGT,-0.11 kcal/mol
15,AGTCACACGTGGATGG,0.13 kcal/mol
16,AGTGTCACGTGAGTCG,0.22 kcal/mol
17,TGGACCACGTGGATTG,0.1 kcal/mol
18,TGTTACACGTGGTGCA,-0.01 kcal/mol
19,AGTCACACGTGTTAGT,0.03 kcal/mol
20,GTGGGCACGTGGCACG,-0.37 kcal/mol
21,GTGCTCACGTGGTTCG,0.25 kcal/mol
22,GAGCGCACGTGATTGG,0.11 kcal/mol
23,AATATCACGTGGAATG,0.21 kcal/mol

row,Sequence,relative binding free energy
1,ATCGCCACGTGGTGTG,-0.13 kcal/mol
2,AAGCGCACGTGTGGGT,-0.08 kcal/mol
3,AGAGTCACGTGAGTGA,0.23 kcal/mol
4,TTAGGCACGTGCGTGG,-0.25 kcal/mol
5,TGTAACACGTGGGTAC,-0.2 kcal/mol
6,TTAAACACGTGCAGGT,0.12 kcal/mol
7,GGAGGCACGTGTGGTA,-0.04 kcal/mol
8,TTTGGCACGTGTTTGA,-0.02 kcal/mol
9,TGTGTCACGTGAAGCG,0.3 kcal/mol
10,GGTGCCACGTGGGGGG,-0.18 kcal/mol
11,AGTATCACGTGTACGT,0.05 kcal/mol
12,TTGAACACGTGAGCGG,0.05 kcal/mol
13,CGGGCCACGTGATGTG,-0.04 kcal/mol
14,GCTTGCACGTGTGATA,0.1 kcal/mol
15,TTTAGCACGTGCGAGG,-0.09 kcal/mol
16,CAGGTCACGTGGTTTT,0.16 kcal/mol
17,ATTATCACGTGGACGT,0.17 kcal/mol
18,AATTACACGTGGGGGG,-0.04 kcal/mol
19,TGGCGCACGTGTCGTG,-0.04 kcal/mol
20,GTTTGCACGTGCGCGT,-0.06 kcal/mol
21,GTTTTCACGTGATATT,0.35 kcal/mol
22,GAGCCCACGTGGTGGG,-0.1 kcal/mol
23,TTTTGCACGTGTCTCG,0.07 kcal/mol

row,Sequence,relative binding free energy
1,AAAGTCACGTGTCGTT,0.14 kcal/mol
2,AGGATCACGTGTACGG,0.14 kcal/mol
3,ATGTGCACGTGGTCGG,-0.01 kcal/mol
4,CTTGGCACGTGTCGTT,-0.05 kcal/mol
5,GTATTCACGTGCAATG,0.28 kcal/mol
6,TTTTGCACGTGTCAAG,-0.02 kcal/mol
7,ATGGTCACGTGTCGGG,0.11 kcal/mol
8,GTTTGCACGTGGGCCT,-0.25 kcal/mol
9,TGCAACACGTGGGTTA,-0.09 kcal/mol
10,GGTTCCACGTGGTTTA,0.08 kcal/mol
11,GTATTCACGTGTGGTC,0.31 kcal/mol
12,ACGGTCACGTGGGGTA,-0.06 kcal/mol
13,ATTTGCACGTGCGATG,-0.07 kcal/mol
14,AGTGACACGTGTGCTT,-0.05 kcal/mol
15,ATTGTCACGTGTCAGG,-0.02 kcal/mol
16,GGGGGCACGTGTGTGT,-0.03 kcal/mol
17,GAGAACACGTGAGTTT,0.39 kcal/mol
18,TCGGACACGTGGGGTT,-0.04 kcal/mol
19,TAGAGCACGTGGTTCG,-0.04 kcal/mol
20,TTGAACACGTGTTGAG,0.03 kcal/mol
21,GTGAGCACGTGGGTTC,-0.25 kcal/mol
22,AAGGTCACGTGATTAT,0.08 kcal/mol
23,GCGATCACGTGGGGTG,0.03 kcal/mol

row,Sequence,relative binding free energy
1,ACTGGCACGTGGCATG,-0.16 kcal/mol
2,TAGGGCACGTGCTTAG,-0.2 kcal/mol
3,GGGTGCACGTGTGAGG,0.2 kcal/mol
4,GATGGCACGTGAGTTG,0.19 kcal/mol
5,CGGTCCACGTGTGGGT,-0.03 kcal/mol
6,CGGTTCACGTGTCGTT,0.29 kcal/mol
7,CGTTTCACGTGTGCTG,0.27 kcal/mol
8,ATGTGCACGTGATGCG,0.05 kcal/mol
9,ATGGTCACGTGAAGGA,0.23 kcal/mol
10,CGCGGCACGTGGTAGT,-0.21 kcal/mol
11,ATGTCCACGTGTGATG,0.12 kcal/mol
12,CCTAGCACGTGAGGGT,0.11 kcal/mol
13,TTGTTCACGTGATTGT,0.36 kcal/mol
14,AAGGGCACGTGTCGGA,-0.06 kcal/mol
15,TAACGCACGTGTGGTG,-0.1 kcal/mol
16,CTTTACACGTGGAGGG,-0.06 kcal/mol
17,TGGTACACGTGAAGGA,0.26 kcal/mol
18,TGATCCACGTGGTAGT,-0.1 kcal/mol
19,TTCTACACGTGGTGAA,0.14 kcal/mol
20,TGTACCACGTGATTGG,0.08 kcal/mol
21,TGGGTCACGTGTGCCG,0.07 kcal/mol
22,TGGGGCACGTGCAGTC,-0.14 kcal/mol
23,ACGGTCACGTGAGTGC,0.31 kcal/mol

# From the BET-seq Pho4 binding data (Le et al. 2018)
